Experimental data published in PubChem BioAssay AID686978 (National Center for Advancing Translational Sciences (NCATS), 2013).
Where “and” joins values, the source holds several entries; their conditions need not be identical. Equal entries are not always repeated. About 64,000 (15%) of roughly 420,000 compounds were called active. The inconclusive results got no clear call from the source; some entries with a clear call stand among them for comparison. Calls follow the shape of the dose curve; as a rule, active = well fitted inhibition curve with a large enough effect; inconclusive = small, poorly fitted or top-dose-only effect; inactive = flat fitted curve, though single readings scatter. A potency beside an inconclusive call is a rough fit, not a confirmed value.

Experiment: qHTS for Inhibitors of human tyrosyl-DNA phosphodiesterase 1 (TDP1): qHTS in cells in absence of CPT; also: nearly all actives have a fitted effect of over 55% in size
Settings: DT40 Tdp1-/- hTDP1 cells, no CPT, ATP luminescence, 48 h
Procedure, shortened: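 Luminescent ATP content (CellTiter-Glo) served as the growth readout. Knockout chicken DT40 cells expressing human TDP1 were exposed to compounds without camptothecin for a minimum 48 hr at 37 °C.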

[1] = activity change, negative = growth inhibition: at 46.2 µM (top of the series) unless noted
% is scaled to controls: 0 for no effect and ±100 for the full control effect; potency is read from the fitted curve at half-maximal effect; tags tell the direction and shape of the fitted curve.

Cc1ccccc1NC(=O)CCn1c(=O)oc2ccccc21
Potency [1]: inactive

O=C(Nc1ccc(F)cc1F)c1c2c(nc3ccccc13)C(=O)N(C1CCCCC1)C2
Potency [1]: inconclusive: 16.4 µM [inhibitor, partial curve]

CS(=O)(=O)N(CC(=O)NC1CCCCCC1)Cc1ccc(Cl)cc1
Potency [1]: inconclusive: 3.98 µM [inhibitor, partial curve]

O=C(O)c1cnn(-c2ccccc2)c1-n1cccc1
Potency [1]: inactive

Cc1noc(C)c1S(=O)(=O)N(CC(=O)NCc1ccccc1Cl)c1ccc(C(C)C)cc1
Potency [1]: inconclusive: 29.1 µM [inhibitor, single point]

COc1cc2cc(CN(CCCN3CCOCC3)C(=O)Nc3ccc(F)cc3)c(=O)[nH]c2cc1OC
Potency [1]: inconclusive: 20.6 µM [inhibitor, partial curve, poor fit]

COc1ccc2[nH]c(=O)c(CN(Cc3ccc4c(c3)OCO4)C(C)=O)cc2c1
Potency [1]: inactive

CN(C)c1cccc(N(C)C)c1CNC(=O)NC(=O)c1c(F)cccc1F
Potency [1]: inconclusive: 29.1 µM [inhibitor, single point]

CCC(=O)NCCc1nc2cc(NC(=O)c3ccc(OC)cc3)ccc2n1C
Potency [1]: inactive

O=C(c1ccc(-n2cncn2)c([N+](=O)[O-])c1)N1CCN(S(=O)(=O)c2ccccc2Br)CC1
Potency [1]: inconclusive: 14.6 µM [inhibitor, single point]

Cc1ccc(OCC(=O)Nc2ccc(O)c(-c3nc4ccccc4o3)c2)cc1
Potency [1]: inconclusive: 18.4 µM [inhibitor, single point]

C=CCSC1=Nc2cc(OC)c(OC)cc2C2=NC(=O)CN12
Potency [1]: active: 10.3 µM

CCN1CCN(C(=O)/C=C/c2ccc(C(C)C)cc2)CC1
Potency [1]: inactive

O=C(Nc1c(-c2ccccc2)nc2ccccn12)c1ccc(Br)cc1
Potency [1]: inconclusive: 25.9 µM [inhibitor, single point]

CC(C)(C)c1csc(NC2=NS(=O)(=O)c3ccccc32)n1
Potency [1]: inactive

Cc1ccc(Nc2cc(C)nc3ncnn23)c(Cl)c1
Potency [1]: inconclusive: 16.4 µM [inhibitor, partial curve]

O=C(COc1ccccc1Cl)Nc1cnn(Cc2ccccc2)c1
activity change, negative = growth inhibition [1]: inconclusive: -34.9% [inhibitor]

Cc1ccc(-n2c(CNc3ccc(C)c(Cl)c3)n[nH]c2=S)cc1
Potency [1]: inconclusive: 25.9 µM [inhibitor, single point]

COc1ccc(/C=N/Nc2ncc(C(F)(F)F)cc2Cl)c(OC)c1OC
Potency [1]: inconclusive: 29.1 µM [inhibitor, single point]

COC(=O)c1ccc(C23CC4(C2)[C@H](CN(C)[C@@H]4c2ccccc2)C3c2ccc(C(F)(F)F)cc2)cc1 (stereo partly specified)
Potency [1]: inconclusive: 18.4 µM [inhibitor, single point]

O=C(NCc1cccs1)C1CCN(C(=O)N2CCOc3ccccc32)CC1
Potency [1]: inactive

Cc1cc(C)cc(-n2ncc3c2CCCC3NC(=O)c2ccccc2)c1 (stereo unspecified)
Potency [1]: inconclusive: 18.4 µM [inhibitor, single point]

Cn1cc(Br)c(C(=O)NC(=S)N2CCN(c3ccccn3)CC2)n1
Potency [1]: inconclusive: 29.1 µM [inhibitor, single point]

CCn1c(CCNC(=O)c2cccs2)nnc1SCC(=O)c1ccc(OC)cc1
Potency [1]: inactive

Cc1csc(SCC(=O)O)n1
activity change, negative = growth inhibition [1]: inconclusive: -29.9% [inhibitor]

Cc1ccc(SCc2cc(=O)[nH]c(N3CCN(C)CC3)n2)cc1
Potency [1]: inactive

CC(C)N(C(=O)CN1CCN(C(=O)C2COc3ccccc3O2)CC1)C(C)C (stereo unspecified)
Potency [1]: inconclusive: 29.1 µM [inhibitor, single point]

Cc1c(NC(=O)C(C)OC(=O)c2ccccc2O)c(=O)n(-c2ccccc2)n1C (stereo unspecified)
Potency [1]: inactive

CC1CN(c2nc3ccccc3cc2-c2ccccc2)CC(C)O1 (stereo unspecified)
Potency [1]: inconclusive: 20.6 µM [inhibitor, single point]

Cc1ccc(SCc2ccc(C(=O)N3CCCCC3)cc2)cc1
Potency [1]: inconclusive: 29.1 µM [inhibitor, partial curve, poor fit]

c1ccc2c(c1)ncn2CCCOc1ccc2c(c1)CCC2
Potency [1]: active: 20.6 µM

COc1cc2c(cc1OC)C1(CCCC1)CNC2c1cccc([N+](=O)[O-])c1 (stereo unspecified)
Potency [1]: inconclusive: 4.61 µM [inhibitor, full curve]

Cc1cc(Cl)ccc1OCC(=O)OC(C)C(=O)NC(N)=O (stereo unspecified)
Potency [1]: inactive

COc1ccccc1NC(=O)N1CCN(c2ccnc3cc(Cl)ccc23)CC1
Potency [1]: active: 16.4 µM

CC1=C(C(=O)N(C)C)CC(CC(=O)NCc2cccc3ccccc23)C(=O)N1Cc1ccc(F)cc1 (stereo unspecified)
Potency [1]: inconclusive: 23.1 µM [inhibitor, single point]

Cc1cc2ccccn2c1C(=O)c1nc(NCc2ccccc2)ncc1Cl
Potency [1]: inconclusive: 35.5 µM [inhibitor, single point] and inconclusive: 29.1 µM [inhibitor, single point]

COc1ccc(-c2nn(CC(=O)Nc3ccccc3F)c3c2cnc2ccc(F)cc23)cc1
Potency [1]: inconclusive: 13 µM [inhibitor, partial curve, poor fit]

CCN(CC(=O)Nc1cc(C)on1)CC(=O)Nc1ccccc1C(F)(F)F
Potency [1]: inactive

COc1ccc(CNc2nc(-c3cccc(NS(C)(=O)=O)c3)nc3ccccc23)c(OC)c1
Potency [1]: inconclusive: 29.1 µM [inhibitor, single point]

CC(=O)CCn1c(=O)n(CCC(C)=O)c(=O)n(CCC(C)=O)c1=O
Potency [1]: inactive

COc1ccc(-c2noc(N3CCCC(C(=O)Nc4ccc(F)cc4F)C3)n2)cc1 (stereo unspecified)
Potency [1]: inconclusive: 29.1 µM [inhibitor, single point]

CCOC(=O)Cn1nc(NC(=O)c2cc(OC)cc(OC)c2)cc1C
Potency [1]: inconclusive: 18.4 µM [inhibitor, single point]

Cc1csc(NC(=O)c2ccc3c(=O)n4c(nc3c2)CCCCC4)n1
Potency [1]: inconclusive: 20.6 µM [inhibitor, single point]

Cn1cccc1/C=C1\CCc2ccccc2C1=O
Potency [1]: inconclusive: 16.4 µM [inhibitor, partial curve]

O=C(Nc1ccc(N2CCN(C(=O)c3ccc(Cl)cc3)CC2)cc1)c1ccc(Br)o1
Potency [1]: inconclusive: 18.4 µM [inhibitor, single point]

N#Cc1c(N)nc(Sc2ccc(Cl)cc2)c(C#N)c1-c1ccccc1Cl
Potency [1]: active: 14.6 µM

COC(=O)c1cnc(Nc2nc(C(N)Cc3ccc(OC)cc3)cs2)nc1C(F)(F)F (stereo unspecified)
Potency [1]: inconclusive: 29.1 µM [inhibitor, single point]

Cc1cc(Br)ccc1NC(=O)CN1C(=O)C2CC=CCC2C1=O (stereo unspecified)
Potency [1]: inconclusive: 29.1 µM [inhibitor, single point]

CCOC(=O)N1CCN(C(=O)c2ccc(S(=O)(=O)Nc3ccc(C)cc3)cc2)CC1
Potency [1]: active: 10.3 µM

COc1ccc(CN2COc3ccc4c(-c5ccc(OC)cc5)cc(=O)oc4c3C2)cc1
Potency [1]: active: 20.6 µM

C=CCCC(=O)N1CCC(CCC(=O)NC2CC2)CC1
Potency [1]: inactive

CC(NCc1ccc(N(C)C)cc1)C1CC2CCC1C2 (stereo unspecified)
Potency [1]: inconclusive: 25.9 µM [inhibitor, single point]

C/C(=N\NC(=O)c1ccc(-c2ccccc2)cc1)c1cccc(N)c1
Potency [1]: inactive

N#Cc1c(Cl)nsc1NCCN1CCOCC1
Potency [1]: inactive

COc1ccc(N2CCN(S(=O)(=O)CCNC(=O)c3ccc(C(F)(F)F)cc3)CC2)cc1
Potency [1]: inactive

Cc1ccc(C)c(N2CCN(CCCNC(=O)Cn3ncc4c([nH]c5ccccc54)c3=O)CC2)c1
Potency [1]: active: 20.6 µM

Cc1ccc(-c2nc(S(=O)(=O)c3ccc(C)cc3)c(N3CCN(c4ccccc4)CC3)o2)cc1
Potency [1]: inconclusive: 11.6 µM [inhibitor, partial curve, poor fit]

O=c1c2ccccc2[nH]c(=S)n1CCc1ccccc1
Potency [1]: inactive

CCn1ncc([C@@H]2C[C@H]3CN(Cc4cccc(Cl)c4)C(=O)[C@]34CCCN24)c1C
Potency [1]: inactive

COc1cccc(C#Cc2ccc3c(c2)O[C@H](CN(C)C)[C@@H](C)CN([C@@H](C)CO)S3(=O)=O)c1
Potency [1]: inconclusive: 29.1 µM [inhibitor, single point]

COc1ccc(CNC(=O)Cn2ncn3nc(-c4cccs4)cc3c2=O)cc1
Potency [1]: inconclusive: 18.4 µM [inhibitor, single point]

Cc1ccc(N(CC(=O)NCc2ccc(F)cc2)C(=O)c2snc(C(N)=O)c2N)cc1C
Potency [1]: inactive

CCN(CC)CCNC(=O)c1cc(Cl)c(N)cc1OC
activity change, negative = growth inhibition [1]: inconclusive: 5.96% [inhibitor]
activity change, negative = growth inhibition (at 46.2 µM (top of the series)): inactive: -27.7% and inactive: -19.3%

COc1cc(/C=C2\SC(=S)N(CCC(=O)Nc3ccccc3)C2=O)cc(OC)c1OC
Potency [1]: inconclusive: 29.1 µM [inhibitor, single point]

COc1ccc(CN(C(=S)Nc2ccccc2)C2CC(=O)N(c3ccc(F)cc3)C2=O)cc1 (stereo unspecified)
Potency [1]: inconclusive: 20.6 µM [inhibitor, single point]

CCOC(=O)C1=C(c2ccccc2)NC(=O)NC1c1cc(Cl)c(O)c(OC)c1 (stereo unspecified)
Potency [1]: inconclusive: 20.6 µM [inhibitor, single point]

CC1=C(C(=O)OC2CCCCC2)C(c2cccs2)n2c(nc3ccccc32)N1 (stereo unspecified)
activity change, negative = growth inhibition [1]: inconclusive: -37.2% [inhibitor]

COc1cccc(Cn2c(=O)c(C)nc3cnc(N(C)C)nc32)c1
Potency [1]: inconclusive: 18.4 µM [inhibitor, single point]

CC(=O)c1ccc(N2CCN(C(=S)Nc3ccc(Oc4ccccc4)cc3)CC2)cc1
Potency [1]: active: 7.31 µM

COc1cccc(COC(=O)CCNC(=O)c2ccc(Br)cc2)c1OC
Potency [1]: inactive
